Experimental data reported in PubChem BioAssay AID1159614 (National Center for Advancing Translational Sciences (NCATS), 2016).
Among all 45,000 compounds or so, about 65 (0.1%) were called active. Calls follow the shape of the dose curve; as a rule, active = well fitted activation curve with a large enough effect; inconclusive = small, poorly fitted or top-dose-only effect; inactive = no such curve, though single readings can be large or run the other way. Some of the results follow.

These molecules were tested against Galactocerebrosidase (Homo sapiens) (UniProt P54803) (assay: A Novel Cell-Based Assay to Identify Small Molecules for B -Galactocerebrosidase). Conditions: 145M-Twi-hGALC-G270D cells (Twitcher mouse brain line with human GALC G270D), HMU-beta-Gal fluorescence, 48 h; series mostly up to 57.5 µM; activation: at the top concentration.
UniProt P54803, sequence (P54803 whole entry, looked up): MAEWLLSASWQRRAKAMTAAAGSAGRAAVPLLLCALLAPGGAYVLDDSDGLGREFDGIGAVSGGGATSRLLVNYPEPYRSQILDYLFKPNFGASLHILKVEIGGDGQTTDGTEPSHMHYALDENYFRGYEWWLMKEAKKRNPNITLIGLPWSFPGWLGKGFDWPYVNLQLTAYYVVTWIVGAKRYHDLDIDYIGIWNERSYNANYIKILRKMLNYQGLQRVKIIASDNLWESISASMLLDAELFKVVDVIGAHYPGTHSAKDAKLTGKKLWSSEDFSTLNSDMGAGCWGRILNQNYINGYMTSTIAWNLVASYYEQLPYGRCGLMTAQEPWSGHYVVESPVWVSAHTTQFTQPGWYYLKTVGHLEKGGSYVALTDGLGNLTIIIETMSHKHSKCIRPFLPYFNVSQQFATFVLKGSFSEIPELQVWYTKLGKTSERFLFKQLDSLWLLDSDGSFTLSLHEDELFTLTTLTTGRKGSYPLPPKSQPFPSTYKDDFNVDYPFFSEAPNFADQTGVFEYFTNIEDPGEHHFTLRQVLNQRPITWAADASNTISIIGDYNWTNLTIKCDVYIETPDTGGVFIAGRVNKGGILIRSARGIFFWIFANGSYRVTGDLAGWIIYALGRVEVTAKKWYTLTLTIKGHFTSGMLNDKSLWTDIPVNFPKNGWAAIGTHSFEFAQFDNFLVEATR
How it was run: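 Mutant human GALC (G270D), stably expressed in a Twitcher mouse brain cell line lacking endogenous GALC, is measured in live-treated cells via 6-hexadecanoylamino-4-methylumbelliferyl-β-galactoside hydrolysis (0.1 mM final, pH 5.2) with fluorescent detection.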
Also: 0% is about no effect; nearly all actives have a fitted effect of over 65% in size.

activation, inactive:
O=C(Cn1ncc2c3ccccc3n(Cc3ccc(F)cc3)c2c1=O)NCCC1=CCCCC1 -12.2%
Cc1ccc(C)c(CN2C(=O)c3ccccc3S(=O)(=O)c3ccc(C(=O)NCCCN4CCCC(C)C4)cc32)c1 (configuration not stated) -3.47%
CCc1ccc(CNC(=O)CN2C(=O)CSc3c2c(C)nn3-c2ccccc2)cc1 16.2%
Cc1cn2c(=O)cc(COC(=O)c3cccc(NC(=O)c4ccccc4Cl)c3)nc2s1 -9.23%
Cc1ccc(CNc2ncnc3c2nnn3C)cc1 -12.7%
Cc1nn(C(=O)c2ccc(Cl)cc2)c(C)c1S(=O)(=O)N1CCOCC1 -10.3%
CCC(CC)c1nn2c(=O)cc(COc3ccc(NC(=O)c4ccc(C)cc4)cc3)nc2s1 -12.9%
Cc1c(C(=O)Nc2ccc(C(C)C)cc2)sc2nc3n(c(=O)c12)CCC3 -54.2%
CN(C)CCNc1ncnc2c1cnn2-c1cccc(Cl)c1 -4.72%
CN(C)c1ccc(C(CNC(=O)c2ccccc2C(F)(F)F)N2CCOCC2)cc1 (configuration not stated) -16.7%
NC1CCN(c2nc3c(cc2F)c(=O)c(C(=O)O)cn3-c2ccc(F)cc2F)C1 (configuration not stated) -22.8%
CCCCSc1nnc2c(n1)OC(c1ccc(Br)s1)N(C(C)=O)c1ccccc1-2 (configuration not stated) -14.2%
Cc1c(Cl)cccc1NC(=O)c1ccc2c(c1)CCN2S(=O)(=O)c1ccccc1 -8.43%
O=C(Nc1nc2n(n1)C(c1ccc(F)cc1)C=C(c1ccccc1)N2)c1ccco1 (configuration not stated) -5.66%
O=c1c(-c2cc(-c3ccccc3)nc3c2COc2ccc(Cl)cc2-3)coc2ccc(F)cc12 -10.7%
CSc1ccc(CCNC(=O)Cn2ccc3cc(S(=O)(=O)N4CCCCCC4)ccc32)cc1 -4.61%
Cc1c(C(=O)Nc2ccc(C(=O)O)cc2)nnn1-c1ccccc1 -8.72%
Cc1ccc(CN2CCCN(CC(=O)Nc3ccc(C)cc3C)S2(=O)=O)cc1 -12%
COC(=O)c1c(NC(=O)c2nc(SCc3ccc(F)cc3)ncc2Cl)sc2c1CCCC2 -6.19%
Cn1nnnc1SCCCNCc1cc(Cl)ccc1OCc1ccc(F)cc1 -30.3%
CCOc1ccccc1-c1noc(CSc2nnc(-c3ccccc3)n2-c2ccc(F)cc2)n1 -19.9%
Cc1nn2c(=O)cc(COC(=O)Cc3ccccc3)nc2s1 -24.8%
Nc1c(C(=O)Nc2ccc(OC(F)(F)F)cc2)sc2nc(-c3ccncc3)ccc12 -18.7%
COc1ccc(CNC(=O)C2CCCN(S(=O)(=O)c3cccc4nsnc34)C2)cc1 (configuration not stated) -14.8%
Cc1ccc(CCNC(=O)c2ccc3c(Cl)c4c(nc3c2)CCCC4)cc1 -23.1%
CCCC(=O)Nc1ccccc1OCc1cc(=O)n2cc(C)ccc2n1 -6.92%
COc1ccccc1CNC(=O)c1ccc2nc(N3CCCCC3)sc2c1 -6.35%
Cc1ccc(C)c(N2CCN(c3c(CN4CCCC4)c(=O)oc4ccccc34)CC2)c1 -8.94%
COc1ccc(NC(=O)CN2C(=O)COc3ccc(S(=O)(=O)N4CCCCCC4)cc32)cc1 -19.8%
CCNC(=O)/C=C/c1cccc(Br)c1 -8.62%
CCC1CN(C(=O)N2CCC(C(=O)Nc3ccccc3F)CC2)c2ccccc2O1 (configuration not stated) -4.99%
CC(C)NCCCC1(C(N)=O)c2ccccc2-c2ccccc21 -13%
Cc1ccc(-n2c(=O)cc(N3CCN(c4ccccc4Cl)CC3)[nH]c2=O)cc1 -4.01%
O=C(Nc1cccc(Cl)c1Cl)c1cc(S(=O)(=O)NCc2ccc3c(c2)OCO3)ccc1F -5.89%
CCOC(=O)c1ccc(N2C(=O)c3n[nH]c(-c4ccco4)c3C2c2ccc(C)cc2)cc1 (configuration not stated) -10.4%
Cc1nn(S(=O)(=O)c2ccc(Br)cc2)c(C)c1S(=O)(=O)N1CCCCCC1 -10.7%
Cc1cc(C)cc(NC(=O)CCS(=O)(=O)c2cccc3nsnc23)c1 -6.99%
COc1ccc(CC(=O)N2CCc3cc(OC)c(OC)cc3C2COc2cc(C)cc(C)c2)cc1OC (configuration not stated) -34.1%
COc1cccc(Cn2c(Oc3cc(C)cc(C)c3)nc3c2c(=O)n(C)c(=O)n3C)c1 -13.9%
CCc1ccc(S(=O)(=O)N(C(=O)c2ccncc2)c2ccc3oc(C)c(C(=O)OC)c3c2)cc1 -17%
COc1cccc(NC(=O)C(=O)NCC(c2ccc3c(c2)OCO3)N2CCN(C)CC2)c1 (configuration not stated) -27.7%
CCc1ccc(N(CC)C(=O)c2cc3c(=O)oc4ccc(C)cc4c3s2)cc1 -16.9%
Cc1cccc(NC(=O)CSc2ccc(-c3ccccn3)nn2)c1 -2.4%
Cc1cccc(C)c1Nc1nn2c(=O)c3cc4c(cc3nc2s1)OCO4 -7.06%
CC(=O)c1ccc(NS(=O)(=O)c2cccc(S(=O)(=O)c3ccc(Cl)cc3)c2)cc1 -30.1%
CCOc1ccc(CCNC(=O)CN2CCN(Cc3ccc(Cl)cc3)C2=O)cc1OCC -9.22%
COc1ccc2oc(=O)c(C(=O)NCCc3c(C)[nH]c4ccc(F)cc34)cc2c1 -5.02%
COCCNc1oc(-c2ccccc2)nc1S(=O)(=O)c1ccc(Br)cc1 3.75%
COc1ccc(NC(=O)CCCSc2nc(-c3ccco3)cc(C(F)(F)F)n2)cc1OC -17.5%
CCCCN(CC)CCCNC(=O)c1cc2c(=O)[nH]c3ccccc3c2n1C -14.8%
CC(=O)Nc1ccc(NS(=O)(=O)c2c(C(=O)N3CCC(C)CC3)c(C)n(C)c2C)cc1 0.394%
COc1cccc(C(=O)Nc2cccc(OCc3cc(=O)n4c5c(sc4n3)CCCC5)c2)c1 0.999%
COc1cccc(-c2nc(S(=O)(=O)c3ccc(Cl)cc3)c(NCc3ccccc3)o2)c1 -11.1%
CCc1ccc(-c2cn3c(n2)sc2cc(C(=O)NC4CCCCC4)ccc23)cc1 -14.4%
COc1ccc2sc(N(Cc3cccnc3)C(=O)c3ccc4c(c3)OCCO4)nc2c1 -39.9%
COc1ccc(OC)c(NC(=O)c2c(NCc3sccc3C)sc3c2CCCCC3)c1 -9.69%
COc1ccc2c(c1)-c1nc(NC(=O)c3ccc(OC)c(Br)c3)sc1CC2 -4.12%
CCC(C(=O)OCc1cc(=O)n2nc(C)sc2n1)c1ccccc1 (configuration not stated) -3.14%
Cc1cccc(-c2noc(CN(C3CCCCC3)S(=O)(=O)c3ccc(F)cc3)n2)c1 -12.2%
COc1ccc(CNC(=O)CN(c2ccc(C(C)C)cc2)S(=O)(=O)c2c(C)nn(C)c2C)cc1 -19%
COc1ccc(NC(=O)CSc2nc3ccccc3nc2N2CCC(C)CC2)cc1 -14.3%
COc1ccccc1OCC(O)COC(N)=O (configuration not stated) -39.5%
O=C(CSC1=Nc2ccccc2N=C(c2ccc(F)cc2)C1)Nc1cccc(C(F)(F)F)c1 -30.2%
CCOC(=O)C1CCCN(C(=O)C2CCN(S(=O)(=O)c3c(C)noc3/C=C/c3ccccc3F)CC2)C1 (configuration not stated) -5.48%
Cc1cc(C)c(C)c(OCC(=O)Nc2ccc(S(=O)(=O)Nc3nc(C)cc(C)n3)cc2)c1 -10.4%
Cc1ccccc1OCC(=O)OCc1cc(=O)n2nc(C3CC3)sc2n1 -11.7%
CCC(=O)N1CCc2cc(Br)cc(S(=O)(=O)CCC(=O)N3CCN(c4ccc(F)cc4)CC3)c21 -7.73%
COc1ccccc1NC(=O)CCn1nc(-c2ccccc2OC)c2c(C)cc(C)nc21 -24.8%
Cc1ccccc1NC(=O)Nc1nnc(N2CCCCCC2)s1 -4.39%
COc1ccc(CC(=O)NCCc2sc3nc(-c4ccc(OC)cc4)nn3c2C)cc1 -32%
COc1cccc(N2CCN(C(=O)C3Cc4ccccc4N3C(C)=O)CC2)c1 (configuration not stated) -9.87%
O=C(C1CCC1)N1CCCc2cc(S(=O)(=O)N3CCN(c4ccccc4)CC3)ccc21 -23.7%
CCc1ccc(OCc2cc(=O)n3c4c(sc3n2)CCCC4)cc1 -3.78%
CCCN(CCC)CCCNC(=O)c1cn(CC)c2ccc(S(=O)(=O)N(C)C3CCCCC3)cc2c1=O -5.4%
Cc1ccc(S(=O)(=O)c2nnn3c2nc(NC(C)C)c2sccc23)cc1 -9.24%
Cc1cccc(-c2nc3ccccc3n2Cc2ccccc2)c1 -18.6%
CCOC(=O)c1c(C)[nH]c(CCC(=O)Nc2c(C)cccc2CC)c1C -8.52%
CCNc1ncnc2c1nnn2C -18.7%
CCOC(=O)N1CCc2c(sc(NCc3cccc(F)c3)c2C(=O)Nc2ccc(OC)cc2OC)C1 -22.4%
CCC(=O)Nc1ccccc1-c1nc2ccccc2n(CC(=O)c2ccc(Cl)cc2)c1=O -5.51%
COc1ccccc1NC(=O)C1=C(C)Nc2nc(CCCO)nn2C1c1cccc(O)c1 (configuration not stated) -8.4%
Nc1c2c(nc3ccccc13)CCCC2O (configuration not stated) -7.3%
COc1ccc2c(Sc3ccc(C)cc3)c(C(=O)NCc3ccc(F)cc3)[nH]c2c1 -8.53%
COc1cc(C2CC(=O)c3cnc(N4CCN(CCO)CC4)nc3C2)cc(OC)c1OC (configuration not stated) -14.5%
Cn1c(=O)c(=O)n(C)c2cc(S(=O)(=O)N3CCN(c4ccc(F)cc4)CC3)ccc21 -0.856%
O=C(Cn1cc(S(=O)(=O)N2CCCC2)c(S(=O)(=O)N2CCCC2)c1)Nc1ccccc1 -14.7%
O=C(Nc1cccc(NC(=O)c2ccccc2F)c1)c1ccccc1 -14.5%
CC(C)c1ccc(NC(=O)CC2NCCNC2=O)cc1 (configuration not stated) -8.42%
O=C(CSc1nc2c(oc3ccccc32)c(=O)n1-c1ccccc1)Nc1ccccc1F -3.26%
CCCC(=O)Nc1cc(C(=O)NCc2ccccc2)ccc1S(=O)(=O)c1ccc(Cl)cc1 -13.5%
CCOC(=O)c1ccc(N2C(=O)c3n[nH]c(-c4ccco4)c3C2c2ccc(OCC)cc2)cc1 (configuration not stated) -18%
Cc1ccc(S(=O)(=O)N2CCCc3cc(NS(=O)(=O)c4cc(F)ccc4F)ccc32)cc1 -5.94%
O=C(CCCn1c(=O)c2ccccc2n(Cc2cccc(Cl)c2)c1=O)NCCc1ccc(Cl)cc1 6.31%
CCn1c(=O)n(-c2ccc(F)cc2)c(=O)c2sc3ccccc3c21 -15.6%
CCOC(=O)c1c(Nc2ccc(F)cc2)nnc(-c2ccccc2)c1-c1ccccc1 -40.3%
CC(C)(C)OC(=O)N1CCC(c2c(C(=O)N3CCN(c4ccccc4)CC3)cnn2-c2ccccc2)CC1 1.56%
COc1ccc(CCNC(=O)c2ccc3c(c2)N(Cc2cc(C)ccc2C)C(=O)c2ccccc2S3=O)cc1OC (configuration not stated) -4.21%
